Measurements reported in PubChem BioAssay AID2675 (National Center for Advancing Translational Sciences (NCATS), 2010).
The campaign covered roughly 280,000 compounds. About 100 (0.036%) were called active. The inconclusive results got no clear call from the source; some entries with a clear call stand among them for comparison. Calls follow the shape of the dose curve; as a rule, active = well fitted inhibition curve with a large enough effect in the signal ratio, with a control signal flat (not every such curve was filed as active); inconclusive = small, poorly fitted or top-dose-only effect, or effect the other way, or a change in a side signal; inactive = no such curve, though single readings can be large or run the other way; the % refers to the signal ratio. A potency beside an inconclusive call is a rough fit, not a confirmed value. “Side channel” marks fits to a control or component signal instead of the main read-out.

Target: Muscleblind-like protein 1 (Homo sapiens) (UniProt Q9NR56)
UniProt Q9NR56, sequence (Q9NR56 whole entry, looked up): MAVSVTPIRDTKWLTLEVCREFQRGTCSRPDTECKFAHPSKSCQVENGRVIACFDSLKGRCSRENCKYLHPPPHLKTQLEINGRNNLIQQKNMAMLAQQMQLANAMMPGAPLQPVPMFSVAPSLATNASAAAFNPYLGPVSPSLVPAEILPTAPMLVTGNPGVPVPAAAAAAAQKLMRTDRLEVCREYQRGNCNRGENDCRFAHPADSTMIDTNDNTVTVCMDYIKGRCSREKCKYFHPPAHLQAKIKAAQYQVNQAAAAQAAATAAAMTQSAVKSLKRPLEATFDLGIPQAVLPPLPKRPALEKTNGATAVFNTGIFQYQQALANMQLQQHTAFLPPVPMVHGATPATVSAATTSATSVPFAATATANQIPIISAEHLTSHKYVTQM
Test: qHTS Assay for Inhibitors of MBNL1-poly(CUG) RNA binding
Conditions: TR-FRET MBNL1-His/biotin-(CUG)12 binding, 665/545 ratio; activity change, negative = inhibition: at 57.5 µM (top of the series)
Procedure, shortened: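 Compound titration spanned 92 nM–58 uM against the MBNL1-His/biotin-(CUG)12 complex. After 60 min at room temperature with 5 nM streptavidin-XL665 and 0.055 ng/ul terbium anti-His, ratiometric 665/545 nm emission (Ex 340 nm) normalized to controls.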
% is scaled to controls: 0 for no effect and ±100 for the full control effect; potency is read from the fitted curve at half-maximal effect; tags tell the direction and shape of the fitted curve or compound fluorescence and quenching.

Row | SMILES | Potency | activity change, negative = inhibition
1 | Cc1ccc(NC(=O)CSc2nnc(-c3ccccn3)n2C)cc1 | inactive | 
2 | Cc1cc(=O)oc2cc(OCC(=O)N(C)C3CCS(=O)(=O)C3)c(Cl)cc12 (centres undefined) | inconclusive: 39.8 µM [quencher, side channel, single point] | 
3 | COCCCn1c(C(=O)NCCN2CCOCC2)cc2c(=O)n3ccccc3nc21 | inconclusive: 11.2 µM [quencher, side channel, partial curve] | 
4 | CCCN1C[C@H](CSC)C[C@@H]2c3cccc4[nH]cc(c34)C[C@H]21 | inconclusive: 50.1 µM [inhibitor, partial curve] | 
5 | O=C(Cn1nc(C(F)F)cc1C(F)F)NNC(=S)Nc1ccc([N+](=O)[O-])cc1 | inconclusive: 17.8 µM [quencher, side channel, partial curve] | 
6 | CC1=C(C)C(=O)N(c2ccc(C(=O)O)cc2)C1=O | inconclusive: 28.2 µM [quencher, side channel, partial curve] | 
7 | O=C(NCC(=O)N1CCC2(CC1)NCCc1[nH]cnc12)c1ccccc1F | inactive | 
8 | COC(=O)c1c(C(=O)OC)c2ccccn2c1C(=O)c1ccc([N+](=O)[O-])cc1 | inconclusive: 12.6 µM [quencher, partial curve] | 
9 | C=CCn1c(=O)c2ccccc2n2c(SC(C)C(=O)Nc3nc(-c4ccccc4)cs3)nnc12 (centres undefined) | inconclusive: 39.8 µM [quencher, side channel, single point] | 
10 | CO/N=C/c1ccc(N2CCN(C(=O)c3ccc(F)cc3)CC2)c([N+](=O)[O-])c1 | inconclusive: 14.1 µM [quencher, partial curve] | 
11 | CC(=O)Nc1ccc(/C=N/NC(=O)c2cccc(S(=O)(=O)N3CCOCC3)c2)cc1 | inconclusive: 11.2 µM [quencher, side channel, partial curve] | 
12 | COC(=O)c1ccc(C(=O)OC)c(NC(=O)COC(=O)c2ccccc2OC)c1 | inactive | 
13 | Cc1ccc2nc(SC(C)C(=O)NC3CCCc4ccccc43)[nH]c2c1 (centres undefined) | inconclusive: 28.2 µM [fluorescent, side channel, partial curve] | 
14 | CCN1C2=C(C(=O)CCC2)C(c2ccc(O)c(Br)c2)C2=C1CCCC2=O | inconclusive: 20 µM [quencher, side channel, partial curve] | 
15 | NS(=O)(=O)c1ccc(NC(=O)COC(=O)c2cc(Cl)ccc2[N+](=O)[O-])cc1 | inconclusive: 25.1 µM [quencher, side channel, partial curve] | 
16 | COc1ccccc1NC(=O)c1cc(S(=O)(=O)N2CCCCCC2)ccc1F | inactive | 
17 | C=CCOc1ccc(/C=N/n2cncn2)cc1OC | inconclusive: 15.8 µM [quencher, side channel, partial curve] | 
18 | c1ccc(-c2ncc(CSc3nncn3-c3ccccc3)s2)cc1 | inactive | 
19 | O=C(N/N=C/C=C/c1ccccc1[N+](=O)[O-])c1cc(-c2ccccc2)n[nH]1 | inconclusive: 12.6 µM [quencher, side channel, partial curve] | 
20 | O=C(c1cccc([N+](=O)[O-])c1)c1ccc2[nH]c(=O)[nH]c2c1 | inconclusive: 3.16 µM [quencher, side channel, full curve] | 

Row | SMILES | Potency | activity change, negative = inhibition
21 | CN1CCN(S(=O)(=O)c2ccc(NC(=S)NC(=O)C(C)(C)C)cc2)CC1 | inconclusive: 50.1 µM [inhibitor, single point] | 
22 | CNc1nc(N)c([N+](=O)[O-])c(NCCO)n1 | inconclusive: 17.8 µM [quencher, side channel, single point] | 
23 | CC(C)(C)C(=O)Cn1c(=N)n(Cc2ccccc2)c2ccccc21 | inactive | 
24 | COc1ccc(NC(=O)c2ccccc2NC(=O)CSc2ccc(Cl)cc2)cc1 | inconclusive: 44.7 µM [fluorescent, side channel, partial curve, poor fit] | 
25 | Cc1c(C)n(C)c2ccc(C(=O)NCCCN3CCN(c4ccc(F)cc4)CC3)cc12 | inactive | 
26 | O=C(Nc1cccc(NC(=O)c2cccnc2)c1)c1cccnc1 | inactive | 
27 | CC(C)CNC(=O)c1cccc2c1-c1ccccc1C2=O | inconclusive: 6.31 µM [quencher, side channel, partial curve] | 
28 | Cc1ccc(C(=O)CSC2=C(C#N)C(c3ccco3)C3=C(CCCC3=O)N2)cc1 (centres undefined) | inconclusive: 15.8 µM [quencher, side channel, partial curve] | 
29 | CCN(CC)C(=O)CN1C(=O)c2cccc3cccc1c23 | inconclusive: 10 µM [quencher, side channel, partial curve] | 
30 | S=c1[nH]nc(-c2ccccc2)c2ccccc12 | inactive | 
31 | COCCNC(=O)Cc1c(C)c2c(cc(C)c3c(C(C)(C)C)coc32)oc1=O | inconclusive: 31.6 µM [quencher, side channel, single point] | 
32 | Fc1ccc(-c2ccnc3nc(N4CCOCC4)nn23)cc1 | inconclusive: 35.5 µM [fluorescent, side channel, single point] | 
33 | NS(=O)(=O)c1ccc(CCNC(=O)c2ccc(Cl)cc2[N+](=O)[O-])cc1 | inconclusive: 7.08 µM [quencher, partial curve] | 
34 | CC(C)c1ccccc1OCC(=O)Nc1ccc2[nH]ncc2c1 | inconclusive: 31.6 µM [quencher, side channel, partial curve] | 
35 | Cc1ccc2nc3c(cc(C(=O)NCc4ccco4)c(=N)n3C3CCCC3)c(=O)n2c1 | inconclusive: 3.16 µM [quencher, full curve] | 
36 | Cc1ccc(Nc2cc(C)nc3ccc(C)cc23)cc1 | inconclusive: 25.1 µM [quencher, side channel, single point] | 
37 | COc1ccc(-n2cnc3cc([N+](=O)[O-])ccc32)cc1 | inconclusive: 14.1 µM [quencher, side channel, partial curve] | 
38 | COc1ccc(OC)c(C2CC(=O)N3CN(c4ccc(C)c(Cl)c4)CSC3=C2C#N)c1 (centres undefined) | inactive | 
39 | COc1ccc(NC(=O)CC2SC(=NCC3CCCO3)NC2=O)c([N+](=O)[O-])c1 (centres undefined) | inconclusive: 10 µM [quencher, partial curve] | 
40 | CC(=O)c1nnn(-c2cccc([N+](=O)[O-])c2)c1C | inconclusive: 14.1 µM [quencher, side channel, partial curve] | 

Row | SMILES | Potency | activity change, negative = inhibition
41 | COC(=O)c1c(NC(=O)Cc2cccs2)sc2c1CCC(C)C2 (centres undefined) | inactive | 
42 | CC(=O)Oc1c(/C=C(\C#N)C(N)=O)[nH]c2ccccc12 | inconclusive: 2.82 µM [quencher, side channel, partial curve] | 
43 | CCC(=O)N/N=C/c1ccc(-c2ccc(Cl)cc2)o1 | inconclusive: 17.8 µM [quencher, side channel, partial curve] | 
44 | COc1ccc(CNC(=O)C(C)N(Cc2ccco2)C(=O)c2snc(C(N)=O)c2N)cc1 (centres undefined) | inconclusive: 8.91 µM [quencher, side channel, partial curve] | 
45 | Cc1c(C(=S)Nc2ccccc2)cnn1-c1ccc([N+](=O)[O-])cc1 | inconclusive: 11.2 µM [quencher, side channel, partial curve, poor fit] | 
46 | O=C(Nc1ccc(-c2nc3cc(Cl)ccc3o2)cc1)C1CCCO1 (centres undefined) | inconclusive: 0.126 µM [quencher, side channel, full curve, poor fit] | 
47 | Cc1cc(C)nc(N/N=C/C(Cl)=C/c2ccccc2)n1 | inconclusive: 15.8 µM [quencher, side channel, partial curve] | 
48 | COc1cccc(C(=O)/C=C2\Sc3ccccc3N2C)c1 | inconclusive: 22.4 µM [quencher, side channel, single point] | 
49 | COc1ccccc1N1CCN(c2ccc(N3C(=O)CCC3=O)cc2[N+](=O)[O-])CC1 | inconclusive: 7.94 µM [quencher, side channel, partial curve] | 
50 | CCS(=O)(=O)c1cc([N+](=O)[O-])c(Sc2ccccc2NC(C)=O)s1 | inconclusive: 3.16 µM [quencher, side channel, full curve] | 
51 | O=C(Nc1ccc(F)cc1)C(=O)c1c(O)[nH]c2ccc([N+](=O)[O-])cc12 | inconclusive: 28.2 µM [quencher, side channel, single point] | 
52 | COc1ccc(C(=O)c2oc3ccc(OC)cc3c2N)cc1 |  | inconclusive: 30.1% [phenotype inactive]
53 | COc1cccc(C2=CC(c3cccc(OC)c3OC)n3nnnc3N2)c1 (centres undefined) | inconclusive: 35.5 µM [quencher, side channel, single point] | 
54 | O=C(c1ccccc1Br)N1CCN(c2ccc([N+](=O)[O-])c(N3CCOCC3)c2)CC1 | inconclusive: 44.7 µM [quencher, side channel, partial curve, poor fit] | 
55 | O=C(O)/C=C/c1ccccc1Oc1ccccc1 | inconclusive: 126 µM [inhibitor, single point] | 
56 | Cc1nc2ccc([N+](=O)[O-])cc2c(=O)n1Cc1ccc(Cl)cc1 | inconclusive: 1.78 µM [quencher, side channel, full curve, poor fit] | 
57 | CC(NC(=O)CCNS(=O)(=O)c1cccc2nsnc12)c1ccccc1 (centres undefined) | inconclusive: 28.2 µM [quencher, side channel, partial curve] | 
58 | CCN(CC)CCOC(=O)c1ccc([N+](=O)[O-])cc1 | inconclusive: 12.6 µM [quencher, side channel, partial curve] | 
59 | Cn1c(CN2CCN(C(=O)c3ccccc3)CC2)nc2cc([N+](=O)[O-])ccc21 | inconclusive: 14.1 µM [quencher, side channel, partial curve] | 
